Reference: publication PMC4336329 (PLoS ONE, 2015)
In all, about 310,000 compounds went through this assay and about 14,000 (4.5%) showed an effect of 50% or more. Effects have a minus sign here. The list shows a part of the results.

Molecular target: human ether-à-go-go-related gene (hERG) potassium channel (human, UniProt Q12809)
Experiment: primary screen, population patch clamp on CHO cells stably expressing hERG
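Note: peak tail current of the secondary pulse compared with the same well before compound.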

Sequence of human ether-à-go-go-related gene (hERG) potassium channel (Q12809 whole entry, looked up): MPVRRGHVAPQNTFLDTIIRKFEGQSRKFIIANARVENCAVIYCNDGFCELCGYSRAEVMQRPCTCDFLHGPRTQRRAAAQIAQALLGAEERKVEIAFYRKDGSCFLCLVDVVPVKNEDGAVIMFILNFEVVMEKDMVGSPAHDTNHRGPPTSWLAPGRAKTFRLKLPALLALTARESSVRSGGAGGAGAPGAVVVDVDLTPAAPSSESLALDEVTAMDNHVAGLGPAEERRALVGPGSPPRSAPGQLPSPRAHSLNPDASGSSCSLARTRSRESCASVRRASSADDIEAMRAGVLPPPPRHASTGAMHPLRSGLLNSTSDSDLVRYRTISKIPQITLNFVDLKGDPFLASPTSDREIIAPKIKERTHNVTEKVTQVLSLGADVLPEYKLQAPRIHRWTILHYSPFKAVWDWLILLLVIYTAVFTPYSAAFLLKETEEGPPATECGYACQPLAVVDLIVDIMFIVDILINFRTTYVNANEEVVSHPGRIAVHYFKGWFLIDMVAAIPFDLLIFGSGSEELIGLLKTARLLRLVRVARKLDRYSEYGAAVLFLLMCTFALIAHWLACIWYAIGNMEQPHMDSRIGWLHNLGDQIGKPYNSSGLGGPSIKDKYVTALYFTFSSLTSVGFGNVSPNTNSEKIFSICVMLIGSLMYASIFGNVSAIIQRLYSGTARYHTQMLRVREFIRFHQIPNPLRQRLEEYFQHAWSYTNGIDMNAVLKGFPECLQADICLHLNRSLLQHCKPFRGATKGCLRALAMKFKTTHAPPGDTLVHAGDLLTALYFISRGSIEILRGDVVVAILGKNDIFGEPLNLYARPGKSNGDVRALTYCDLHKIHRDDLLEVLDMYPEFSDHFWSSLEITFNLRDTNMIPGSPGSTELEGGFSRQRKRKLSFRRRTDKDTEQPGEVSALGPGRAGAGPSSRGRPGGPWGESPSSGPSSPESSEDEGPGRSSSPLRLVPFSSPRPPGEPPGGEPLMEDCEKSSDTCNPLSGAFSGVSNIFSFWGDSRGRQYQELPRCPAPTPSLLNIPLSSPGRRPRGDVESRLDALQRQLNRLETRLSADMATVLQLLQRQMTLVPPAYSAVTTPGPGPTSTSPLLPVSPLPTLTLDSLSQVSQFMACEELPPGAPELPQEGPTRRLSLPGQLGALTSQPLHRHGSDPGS

| SMILES | hERG current change (%, negative = inhibition) at 10uM |
| --- | --- |
| COc1ccccc1C1C(C#N)=C(N)Oc2cc(C)n(Cc3ccccn3)c(=O)c21 (stereo not shown) | -2.81% |
| Cc1cc(C)n(C2CC(=O)N(c3ccc(C)c(Cl)c3)C2=O)n1 (stereo not shown) | 28.1% |
| COc1ccc(NC(=O)CN2CCC(NC(=O)c3ccco3)CC2)c([N+](=O)[O-])c1 | -43.5% |
| Cc1cc[n+](CCC(=O)O)c2ccccc12.[Br-] | 13.9% |
| O=C(CC12CC3CC(CC(C3)C1)C2)N1CCOCC1 | -1.47% |
| COc1ccc(-c2csc(NC(=S)NC(=O)c3ccc4ccccc4c3)n2)cc1OC | 24.8% |
| COc1ccc2c(c1)OC[C@H]1[C@H]2N2C(=O)CN(C)C(=O)[C@@]2(C)[C@H]1c1ccccc1 | 2.07% |
| CC(NC(=O)CN1C(=O)NC(c2ccccc2)(c2ccccc2)C1=O)c1cccs1 (stereo not shown) | 13.3% |
| O=[N+]([O-])c1ccc(-n2nncc2-c2ccc(Cl)cc2)cc1 | -72.7% |
| O=C1NC(=S)N/C1=C\c1ccccc1OCc1ccc(C(=O)O)cc1 | -18.9% |
| CC(C)(C)NC(=O)C(c1ccc(F)cc1)N(CC1CCCO1)C(=O)c1csnn1 (stereo not shown) | 27.3% |
| C=CCNC(=O)c1ccc(Sc2ccc(C)cc2)c([N+](=O)[O-])c1 | 8.32% |
| COc1cccc(OC)c1C(=O)NC(=S)NNC(=O)[C@H]1C[C@@H]1c1ccccc1 | 9.52% |
| O=C(CCS(=O)(=O)c1cccs1)Nc1ccc(C(=O)NC2CCN(Cc3ccccc3)CC2)cc1 | 9.05% |
| N#Cc1c(-c2ccccc2)cc(-c2ccccc2)nc1SCCC(=O)O | 18.4% |
| CC1(c2ccc(Cl)cc2)NC(=O)CS1 (stereo not shown) | -10.2% |
| CCCCOc1ccc(OCCNC(=O)c2ccco2)cc1 | -4.14% |
| CCCCOc1ccc(C(=O)NCC(=O)NCc2ccccn2)cc1 | 11.4% |
| Cn1c(COc2cccc3ccccc23)nnc1SCC(=O)OC1CCCCC1 | -7.32% |
| COc1ccc(N(C)S(=O)(=O)c2cccc(C(=O)NCC(c3cccs3)N(C)C)c2)cc1 (stereo not shown) | -52.3% |
| CCc1cc2c(N3CCN(c4nnc(CC)s4)CC3)ncnc2s1.Cl | -67.6% |
| CCc1noc(C)c1C(=O)Nc1nnc(C2CCCCC2)s1 | -18.3% |
| O=C1/C(=C\c2cccnc2)N2CCC1CC2 | 15.1% |
| O=C(Oc1ccc(-n2cnnn2)cc1)c1ccco1 | 2.47% |
| Cc1ccc(C(=O)CN2C(=O)NC3(CCc4ccccc43)C2=O)s1 (stereo not shown) | 1.7% |
| O=C1C(SC(F)(F)C(F)F)=C(C(F)(F)F)OC2C3C=CC(C3)C12 (stereo not shown) | 0.387% |
| CCCC(=O)N(Cc1cc(=O)[nH]c2ccccc12)c1ccc(C)cc1 | -3.22% |
| CC(=O)c1cccc(S(=O)(=O)Nc2ccc3nc(C)sc3c2)c1 | 7.6% |

| SMILES | hERG current change (%, negative = inhibition) at 10uM |
| --- | --- |
| O=C(O)CCCC(=O)NCCCCc1ccccc1 | 15.4% |
| COCCCNC(=O)Cn1ccc(NC(=O)OCc2ccccc2)nc1=O | 14.2% |
| CCCCNC(=O)CSc1nc(CCC)nc2ccccc12 | 9.42% |
| O=C(O)c1cc(Cl)c(Cl)cc1C(=O)NCc1ccco1 | 17.3% |
| Cc1nc2ccccc2nc(C)c1=NOCc1ccccc1Cl | 4.62% |
| COc1ccccc1C(=O)NC(CCSC)C(=O)NCC(c1ccco1)N(C)C (stereo not shown) | -22.4% |
| O=C(O)CCN1C(=O)/C(=C2\C(=O)N(Cc3ccc(F)cc3)c3ccccc32)SC1=S | 2.76% |
| COc1cc(C)c(C(=O)CC(=O)c2c(C)cc(OC)cc2C)c(C)c1 | -1.45% |
| Cc1ccc(S(=O)(=O)Nc2cccc(/C=C/C(=O)O)c2)cc1 | 16.8% |
| COc1ccc(Nc2nc(Cl)nc(NCc3ccco3)n2)c(OC)c1 | 18.2% |
| O=C(COc1ccc2c3c(c(=O)oc2c1)CCC3)NCc1ccccn1 | 1.46% |
| CC(C)OC(=O)C1C(=O)CC(C)(O)C(C(=O)OC(C)C)C1c1ccc(F)cc1 (stereo not shown) | 0.605% |
| COc1ccccc1C1CCN(C(=O)c2ccc(C(C)(C)C)cc2)CC1 | 0.194% |
| COCCCN1C(=O)C(=O)/C(=C(/O)c2ccc(S(=O)(=O)N3CCCCC3)cc2)C1c1cccc(OC)c1 (stereo not shown) | -11% |
| CCOc1ccc(C(=O)Nc2ccccc2-c2ccccc2)cc1Cl | 22.7% |
| CCOc1ccc(N(CC(=O)Nc2ccc(C)cc2C)S(C)(=O)=O)cc1 | 3.95% |
| CC[C@]1(c2ccccc2)C(=O)N(C(=O)OC)N1C(=O)OC | 25.2% |
| O=C(CSc1nnc(NC(=O)c2ccccc2Cl)s1)Nc1ccc2c(c1)oc1ccccc12 | 9.16% |
| NC(=O)CSc1ccc(S(=O)(=O)N2CCCCC2)cn1 | 12.9% |
| NC(=O)C1CCCN(C(=O)CCc2nnc(C3(c4ccc(Cl)cc4)CCC3)o2)C1 (stereo not shown) | -4.11% |
| COc1ccc(S(=O)(=O)N(C)c2ccc(OCC(=O)Nc3cc(C)on3)cc2)cc1 | -15.3% |
| CCCCCOC(=O)Cn1c(SCC(=O)Nc2ccccc2)nc2c1c(=O)[nH]c(=O)n2C | -18.3% |
| Cc1nnc2c(SC(C)C)nc3ccccc3n12 | -77.2% |
| O=C(COc1ccc(/C=N/NC(=O)c2ccccc2O)cc1)Nc1ccc([N+](=O)[O-])cc1 | 13.7% |
| CCC(C)Sc1cc(C)c(C#N)c2nc3ccccc3n12 (stereo not shown) | -35.7% |
| COc1ccc(NS(=O)(=O)c2cccc(C(=O)NCC(c3ccccc3)N(C)C)c2)cc1 (stereo not shown) | -27% |
| CN(C)S(=O)(=O)c1cccc(C(=O)Nc2cc(Cl)cc(Cl)c2)c1 | 4.25% |
